Data published in the supplement of paper PMC4967469.
The IC50 comes from the fitted curve, where viability falls to half of the control; where the fit passes the top or lowest dose, that dose stands as a limit. For AUC the same curve is integrated over the 256-fold range of doses and scaled to a fraction; the more sensitive the line, the further below 1. For some assays here: Any top dose called inferred was calculated from the reported fits. For some assays here: Where an entry number is given, a second screen of the drug exists; the two often differ.

Experiments:
Assay in all cases: Viability of human cancer cell lines after 72 h of drug (GDSC screen)
CUDC-101 = compound: C#Cc1cccc(Nc2ncnc3cc(OC)c(OCCCCCCC(=O)NO)cc23)c1 [CUDC-101]; details: top dose 5.12 µM; top dose inferred
Description: (§1)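 Human cancer cell lines in 384-well plates, medium with 10% serum, drug for 72 h over a 256-fold dose range (nine 2-fold or five 4-fold steps up to the top dose). Adherent lines were fixed and stained with the nucleic acid dye Syto60, suspension lines read with resazurin; signal relative to control wells, capped at 0 and 100%. One two-parameter sigmoid per drug and line, fitted in a mixed model over all curves with the slope shared within a line.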

AC220 = compound: CC(C)(C)c1cc(NC(=O)Nc2ccc(-c3cn4c(n3)sc3cc(OCCN5CCOCC5)ccc34)cc2)no1 [AC220]; details: top dose 1.024 µM; top dose inferred
Description: as §1

RDEA119 = compound: COc1cc(F)c(F)c(Nc2ccc(I)cc2F)c1NS(=O)(=O)C1(C[C@H](O)CO)CC1 [RDEA119]; details: top dose 5 µM, top dose inferred
Description: as §1

JNK-9L = compound: Fc1cc(-c2ccnc(Nc3ccc(-n4cnc(N5CCOCC5)n4)cc3)n2)cc(N2CCOCC2)c1 [JNK-9L]; details: top dose 5.12 µM; top dose inferred
Description: as §1

OSU-03012 = compound: NCC(=O)Nc1ccc(-n2nc(C(F)(F)F)cc2-c2ccc3c(ccc4ccccc43)c2)cc1 [OSU-03012]; details: top dose 16 µM; top dose inferred
Description: as §1

5-Fluorouracil = compound: O=c1[nH]cc(F)c(=O)[nH]1 [5-Fluorouracil]; details: top dose 32 µM; top dose inferred
Description: as §1

QS11 = compound: OC[C@H](Cc1ccccc1)Nc1nc(Oc2ccc3c(c2)CCC3)nc2c1ncn2Cc1ccc(-c2ccccc2)cc1 [QS11]; details: top dose 10.24 µM
Description: as §1

Cell Line	AUC (CUDC-101)	IC50 (CUDC-101)	AUC (AC220)	IC50 (AC220)	AUC (RDEA119; screen: GDSC drug entry 1014)	IC50 (RDEA119; screen: GDSC drug entry 1014)	AUC (RDEA119; screen: GDSC drug entry 1526)	IC50 (RDEA119; screen: GDSC drug entry 1526)	AUC (JNK-9L)	IC50 (JNK-9L)	AUC (OSU-03012)	IC50 (OSU-03012)	AUC (5-Fluorouracil)	IC50 (5-Fluorouracil)	AUC (QS11)	IC50 (QS11)
RT4 (bladder, adherent)	0.446	0.226 µM	0.965	> 1.02 µM	0.944	> 5 µM	0.929	> 5 µM	0.735	1.56 µM	0.862	14.9 µM	0.831	21.8 µM	0.987	> 10.2 µM
RT-112 (bladder, adherent)	0.537	0.406 µM	0.979	> 1.02 µM			0.772	2.07 µM	0.541	0.417 µM	0.547	1.35 µM	0.763	12.4 µM	0.828	6.99 µM
RVH-421 (melanoma, adherent)	0.822	4.57 µM	0.936	> 1.02 µM	0.377	0.126 µM	0.623	0.771 µM	0.491	0.299 µM	0.834	> 16 µM	0.776	17.8 µM	0.96	> 10.2 µM
RXF393 (kidney, adherent)	0.437	0.202 µM	0.933	> 1.02 µM	0.673	1.16 µM	0.702		0.311	0.076 µM	0.771	8.61 µM	0.93	> 32 µM	0.976	> 10.2 µM
Raji (Burkitt lymphoma, suspension)	0.401	0.175 µM	0.989	> 1.02 µM	0.99	> 5 µM	0.963	> 5 µM	0.572		0.8	7.18 µM	0.863	24.8 µM	0.943	> 10.2 µM
Ramos-2G6-4C10 (Burkitt lymphoma, suspension)	0.296	0.0944 µM	0.984	> 1.02 µM	0.983	> 5 µM	0.977	> 5 µM	0.533	0.389 µM	0.652	2.46 µM	0.87	22.8 µM	0.875	7.6 µM
SAS (head and neck, adherent)	0.415	0.183 µM	0.98	> 1.02 µM	0.811	3.03 µM	0.79	2.51 µM	0.74	1.7 µM	0.71	4.24 µM	0.817	20.6 µM	0.725	3.03 µM
SAT (head and neck, adherent)	0.52	0.372 µM	0.972	> 1.02 µM	0.701	1.58 µM			0.623	0.843 µM	0.855	> 16 µM	0.931	> 32 µM	0.975	> 10.2 µM
SBC-1 (small cell lung carcinoma, suspension)	0.636	0.749 µM	0.987	> 1.02 µM	0.989	> 5 µM	0.987	> 5 µM	0.938	> 5.12 µM	0.965	> 16 µM	0.728	8.62 µM	0.984	> 10.2 µM
SBC-3 (small cell lung carcinoma, adherent)	0.292	0.0887 µM	0.97	> 1.02 µM	0.982	> 5 µM	0.93	> 5 µM	0.308	0.0983 µM	0.572	1.54 µM	0.502	2.02 µM	0.943	> 10.2 µM
SCC-4 (head and neck, adherent)	0.607	0.666 µM	0.984	> 1.02 µM			0.877	> 5 µM	0.594	0.608 µM	0.773	7.45 µM	0.961	> 32 µM	0.981	> 10.2 µM
SCC-9 (head and neck, adherent)	0.421	0.183 µM	0.976	> 1.02 µM	0.895	> 5 µM	0.669	1.06 µM	0.464	0.248 µM	0.873	> 16 µM	0.83	28.3 µM	0.981	> 10.2 µM
SCC-15 (head and neck, adherent)	0.483	0.283 µM	0.98	> 1.02 µM	0.868	> 5 µM	0.748	2.1 µM	0.581	0.575 µM	0.716	5.1 µM	0.854	> 32 µM	0.936	> 10.2 µM
SCC-25 (head and neck, adherent)	0.4	0.163 µM	0.97	> 1.02 µM	0.568		0.772	2.18 µM	0.492	0.303 µM	0.636	2.5 µM	0.837	25.6 µM	0.933	> 10.2 µM
SCH (stomach, adherent)	0.95	> 5.12 µM	0.988	> 1.02 µM	0.955	> 5 µM	0.986	> 5 µM	0.858	4.74 µM	0.988	> 16 µM	0.988	> 32 µM	0.988	> 10.2 µM
SF126 (glioma, adherent)	0.698	1.19 µM	0.985	> 1.02 µM	0.878	> 5 µM	0.867	4.96 µM	0.74	1.63 µM	0.715	4.2 µM	0.894	> 32 µM	0.934	> 10.2 µM
SF295 (glioma, adherent)	0.675	1.03 µM	0.98	> 1.02 µM	0.934	> 5 µM	0.853	4.41 µM	0.546	0.432 µM	0.618	2.17 µM	0.906	> 32 µM	0.703	2.51 µM
